Results from the supplement of paper PMC7826260.
This is one part of the list. One pool of 16,384 single-stranded DNAs met each Rep nickase domain in vitro (3 µM enzyme, 1 h, 37 °C); shown is the middle of each 90-letter strand. Values are log2 of uncut reads against the no-enzyme pool; the lower, the more was cut; hits are not called. Because reads are shares of a total, they shift together, so uncut sequences can rise above 0 when many others are cut.

Tests used:
Assay in all cases: uncleaved DNA left, log2 of reads against the no-enzyme library (log2 ratio); higher = less cleavage (more negative = more Rep cleavage of the k-mer); sequences stand for … in CTCGTCCG…ACCGGAGA
[1] = test system: T1, Rep nickase domain of Muscovy duck circovirus
T1 sequence (Rep 1-111, printed without the tag): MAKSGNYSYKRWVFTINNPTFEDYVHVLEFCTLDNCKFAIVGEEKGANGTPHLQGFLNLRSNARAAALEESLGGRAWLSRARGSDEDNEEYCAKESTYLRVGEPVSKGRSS
Description: (§1)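 A pool of 90-nt single-stranded DNAs with seven random bases just before the constant AC of the nick site (name = the seven bases) was cut by 3 µM recombinant His6-SUMO-tagged Rep nickase domain (300 nM DNA, 50 mM HEPES pH 8.0, 50 mM NaCl, 1 mM MnCl2, 1 h, 37 °C, three replicates). Uncut DNA was amplified and sequenced.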

[2] = test system: T2, Rep nickase domain of banana bunchy top virus
T2 sequence (Rep 1-94, printed without the tag): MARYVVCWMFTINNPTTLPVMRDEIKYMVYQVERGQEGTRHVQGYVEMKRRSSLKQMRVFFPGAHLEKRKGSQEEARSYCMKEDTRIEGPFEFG
Description: as §1

[3] = test system: T3, Rep nickase domain of cabbage leaf curl virus
T3 sequence (Rep 1-116, printed without the tag): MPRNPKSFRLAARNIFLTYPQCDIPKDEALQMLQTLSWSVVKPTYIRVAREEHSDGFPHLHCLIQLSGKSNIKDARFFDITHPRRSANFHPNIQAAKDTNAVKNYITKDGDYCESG
Description: as §1

[4] = test system: T4, Rep nickase domain of chickpea chlorotic dwarf virus
T4 sequence (Rep 1-124, printed without the tag): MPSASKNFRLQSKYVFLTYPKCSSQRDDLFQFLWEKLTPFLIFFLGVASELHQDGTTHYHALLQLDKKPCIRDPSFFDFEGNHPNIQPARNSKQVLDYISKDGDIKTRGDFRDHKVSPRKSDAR
Description: as §1

[5] = test system: T5, Rep nickase domain of faba bean necrotic yellows virus
T5 sequence (Rep 1-98, printed without the tag): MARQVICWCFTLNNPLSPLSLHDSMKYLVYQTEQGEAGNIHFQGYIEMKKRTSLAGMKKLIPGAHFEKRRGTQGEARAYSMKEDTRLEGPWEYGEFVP
Description: as §1

[6] = test system: T6, Rep nickase domain of maize striate mosaic virus
T6 sequence (Rep 1-117, printed without the tag): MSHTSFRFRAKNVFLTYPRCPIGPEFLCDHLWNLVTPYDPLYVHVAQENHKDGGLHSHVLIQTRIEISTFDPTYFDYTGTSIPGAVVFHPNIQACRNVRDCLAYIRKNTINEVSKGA
Description: as §1

[7] = test system: T7, Rep nickase domain of porcine circovirus 2
T7 sequence (Rep 2-116, printed without the tag): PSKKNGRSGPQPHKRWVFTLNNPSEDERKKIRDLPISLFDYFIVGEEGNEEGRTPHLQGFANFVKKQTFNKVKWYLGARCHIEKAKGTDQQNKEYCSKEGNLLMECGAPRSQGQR
Description: as §1

[8] = test system: T8, Rep nickase domain of tomato golden mosaic virus
T8 sequence (Rep 1-124, printed without the tag): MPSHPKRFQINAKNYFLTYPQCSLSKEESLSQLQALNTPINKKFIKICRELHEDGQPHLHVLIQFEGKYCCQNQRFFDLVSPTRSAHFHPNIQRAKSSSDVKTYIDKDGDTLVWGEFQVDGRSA
Description: as §1

[9] = test system: T9, Rep nickase domain of tomato yellow leaf curl virus
T9 sequence (Rep 1-136, printed without the tag): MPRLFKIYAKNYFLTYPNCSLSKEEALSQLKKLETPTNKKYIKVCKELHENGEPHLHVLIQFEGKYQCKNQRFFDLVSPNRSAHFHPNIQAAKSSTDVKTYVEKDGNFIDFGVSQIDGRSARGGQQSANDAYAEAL
Description: as §1

[10] = test system: T10, Rep nickase domain of wheat dwarf virus
T10 sequence (Rep 1-137, printed without the tag): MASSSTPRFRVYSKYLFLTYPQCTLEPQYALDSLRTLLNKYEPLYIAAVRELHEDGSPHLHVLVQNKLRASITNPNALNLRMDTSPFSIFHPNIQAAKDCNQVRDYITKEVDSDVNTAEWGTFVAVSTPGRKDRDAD
Description: as §1

Sequence | uncleaved DNA left (log2) [1] | uncleaved DNA left (log2) [2] | uncleaved DNA left (log2) [3] | uncleaved DNA left (log2) [4] | uncleaved DNA left (log2) [5] | uncleaved DNA left (log2) [6] | uncleaved DNA left (log2) [7] | uncleaved DNA left (log2) [8] | uncleaved DNA left (log2) [9] | uncleaved DNA left (log2) [10]
GCCTGTG | 0.123 | 0.0183 | -0.581 | -0.262 | 0.0741 | -0.72 | 0.226 | -0.00492 | 0.12 | -0.0346
GAGCGGA | 0.0663 | 0.0994 | 0.0792 | 0.439 | -0.0312 | 0.469 | -0.403 | 0.0553 | 0.0271 | 0.0122
CAAACCT | -0.0337 | -0.0194 | -2.45 | -2.73 | 0.0451 | -1.02 | -1.16 | -0.432 | 0.0536 | -0.628
GACAATC | 0.0596 | 0.099 | 0.35 | 0.965 | -0.0393 | 0.862 | 0.194 | -0.0159 | 0.123 | 0.114
CGTGGAG | -0.00311 | -0.0273 | -0.586 | -0.267 | -0.0718 | -0.754 | 0.177 | -0.084 | 0.0464 | 0.0162
GACCCTA | -0.00296 | 0.00792 | 0.628 | 0.749 | 0.00586 | 1.68 | -0.0269 | 0.0122 | 0.0204 | 0.107
GTAACAG | 0.0117 | 0.0969 | -0.0967 | -0.316 | -0.0272 | -0.0807 | 0.245 | 0.0561 | 0.145 | 0.194
CCAAGCT | 0.116 | 0.0282 | 0.308 | 1.32 | 0.0256 | 1.55 | 0.0476 | 0.0259 | -0.105 | 0.0858
TATAATG | 0.0254 | -0.0752 | -0.524 | -0.837 | 0.125 | -1.02 | 0.153 | -0.121 | -0.0466 | -0.00535
AAGCCAG | 0.052 | 0.0186 | -0.314 | -0.531 | -0.0126 | -0.765 | 0.235 | 0.131 | 0.0357 | 0.155
TCGGAGA | -0.132 | -0.0615 | 0.259 | 0.561 | -0.155 | 0.174 | -0.0735 | -0.0854 | -0.238 | -0.00253
CACCACG | 0.0916 | 0.179 | -0.789 | 0.000175 | 0.19 | -0.736 | 0.0498 | 0.0892 | 0.0863 | 0.173
CCCCCTC | -0.0898 | -0.0809 | -0.0792 | -0.223 | 0.0428 | -0.34 | -0.245 | -0.169 | -0.264 | -0.158
ATACTAA | 0.101 | 0.0309 | -0.00547 | -0.706 | 0.0919 | -0.612 | 0.0742 | 0.157 | -0.113 | 0.123
CGGGGTC | -0.0428 | -0.0301 | 0.592 | 0.984 | -0.000664 | 1.82 | 0.136 | 0.0268 | -0.0598 | -0.00745
CGATCAG | -0.0274 | 0.0217 | -0.33 | 0.0243 | -0.154 | -0.477 | 0.0573 | -0.0268 | -0.0584 | 0.0109
ATGGATG | 0.00114 | -0.0543 | -0.0017 | 0.601 | 0.0931 | 0.048 | 0.108 | -0.03 | -0.0164 | 0.0483
GTACAAT | 0.0116 | 0.0563 | 0.357 | 0.885 | 0.238 | 1.7 | 0.0915 | 0.023 | -0.0167 | 0.139
ACTGTGA | 0.0731 | -0.0173 | -0.428 | -0.348 | 0.0215 | -0.984 | 0.0584 | 0.0622 | 0.00757 | -0.0707
GGTACTG | 0.0137 | 0.00846 | 0.2 | 0.927 | 0.0478 | 1.72 | 0.123 | -0.00559 | 0.109 | 0.0925
AAAGCAT | 0.0496 | 0.036 | 0.0689 | 0.568 | -0.0231 | 0.818 | 0.166 | 0.0771 | -0.049 | 0.06
CCGGACG | -0.0824 | 0.0206 | -0.579 | -0.354 | -0.0562 | -0.909 | 0.0183 | 0.0786 | -0.16 | -0.115
GGCACCG | 0.0695 | 0.0207 | 0.0311 | 0.0781 | 0.0584 | -0.0524 | 0.136 | 0.0643 | 0.118 | 0.0403
GCATTTG | -0.0051 | -0.037 | -0.559 | -0.507 | -0.0108 | -1.1 | 0.126 | -0.024 | 0.00477 | -0.172
CCTACCT | -0.0696 | 0.0258 | -0.484 | -2.76 | -0.0808 | -0.554 | -0.978 | -0.202 | -0.032 | -0.119
TAGCCCC | -0.118 | -0.0803 | -0.0468 | -0.197 | -0.0797 | 0.033 | -0.654 | -0.299 | -0.00708 | 0.024
GTCGAAA | 0.221 | 0.0261 | 0.36 | 1.01 | -0.0773 | 1.69 | 0.148 | 0.182 | 0.2 | 0.189
TGAGCCG | 0.164 | 0.0854 | -0.558 | -0.472 | 0.0728 | -0.847 | 0.297 | 0.0334 | 0.0997 | 0.0765
GAATCGC | 0.0486 | 0.121 | -0.618 | -0.654 | 0.136 | -0.806 | 0.176 | 0.0523 | 0.136 | 0.00797
